# Measurements taken from the supplement of paper PMC4466236.
# Whole data set: some 33,000 sequences, median “E-score (dimensionless, -0.5 to 0.5)” near -0.058, cut for the highest 2% near 0.35. The list shows a part of the results.
# Tested on: MvaT
# Assay: PBM 8-mer E-score (mean of HK and ME arrays) (E-score (dimensionless, -0.5 to 0.5)); higher = stronger relative binding preference; most listed sequences are background and not binding sites
# Outline: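 Reported values are rank-based E-scores, taken as the mean of two universal arrays and parsed with a custom script. Each 8-mer score falls between -0.5 and 0.5. The arrays, ME and HK, were double-stranded 60-mers with a constant 25-mer primer region and a variable 35-mer region covering all 8-mers. They were probed, by an earlier protocol, with full-length P. aeruginosa MvaT carrying an N-terminal glutathione S-transferase fusion.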
row,Sequence,PBM 8-mer E-score
1,GAGTCCCC,-0.251
2,ATCCAATC,-0.0136
3,ACTTAGAA,0.296
4,AGCACGGC,-0.297
5,ACAGGAGT,-0.104
6,TACGCTGA,-0.091
7,CCATAGCG,-0.0585
8,ATTGTCCG,0.0479
9,AATTGCCA,0.199
10,GGTACAAA,0.0825
11,CTCGATGA,-0.0603
12,AACACCTC,0.108
13,CGCATCGA,-0.122
14,AGCCAGCT,-0.335
15,TATCACCA,-0.00303
16,AATGCCGT,0.0989
17,AGGACGAA,-0.196
18,CTCGCCCA,-0.184
19,TAAAGCAA,0.19
20,CATTGCAA,0.00715
21,AGCCTTCA,-0.213
22,CTAGTGAC,-0.253
23,TGCAGCCA,-0.215
24,CATGAGCC,-0.2
25,AATCACTA,0.0235

row,Sequence,PBM 8-mer E-score
1,ATTGGGGA,-0.0105
2,CGCAGTAG,-0.207
3,GAACCTAA,-0.00933
4,GGAGGGAA,-0.288
5,CGCCAAAC,0.00559
6,GGCGATCA,0.0093
7,AGATTGGA,0.0296
8,CCTATACC,-0.173
9,CAGACAGG,-0.294
10,AATACAAA,0.357
11,ACGCGGTG,-0.0906
12,GAAGATGC,-0.101
13,CCGATATC,0.107
14,AAGGGCTG,-0.287
15,ACAAGTCA,0.0671
16,AGATGCTA,-0.0257
17,ACACGTGG,-0.0285
18,AAATGCAT,0.257
19,ATGACAGG,-0.193
20,CTGTCGGA,-0.179
21,GGCATAAC,-0.00208
22,AACATGGG,-0.0992
23,TGCAGGCA,-0.0892
24,TACAGTGA,0.0166
25,AGCAAGGC,-0.134

row,Sequence,PBM 8-mer E-score
1,CCAATCGC,-0.18
2,ACCCTTGG,-0.266
3,TCCAGCCA,-0.254
4,ACCTGGAG,-0.224
5,TACTGCAA,0.108
6,CGCATAAC,0.0836
7,ATTACGTC,0.155
8,AACTTGCT,0.193
9,TATTCCGA,0.227
10,CACGATTC,-0.0824
11,AACAAGGC,-0.0896
12,CGAAACAC,0.0148
13,GACTTCCC,-0.205
14,GCTCGACA,-0.195
15,CAGGCCTC,-0.355
16,GGACGGGA,-0.122
17,GAGTAAGA,0.0151
18,AACCACTA,-0.0695
19,GCTTAACC,-0.107
20,ACGATCGA,-0.0415
21,AGTGCAGC,-0.0911
22,ATCACGGC,-0.0541
23,GTTCCTGA,-0.0186
24,AGTGACGC,-0.109
25,AATATGAT,0.345

row,Sequence,PBM 8-mer E-score
1,CGCTTTTA,0.062
2,CTAGAGGC,-0.228
3,GTGCCGGA,-0.131
4,CCGTCTCG,-0.252
5,ACACACCA,0.072
6,GTAGACGA,-0.0708
7,CCTACGCC,-0.303
8,AGAGCGAG,-0.174
9,ATCACGCC,-0.119
10,GACCAACA,0.0491
11,ATAGAAGA,0.0897
12,ACATAGGT,-0.0135
13,GCATCATA,0.108
14,GAAAGTAC,0.0989
15,AGAGCCCC,-0.343
16,CCACATAC,0.158
17,ACACTTGA,0.0546
18,TCATAGAA,-0.00823
19,GACGATAC,-0.0716
20,AATTTAAT,0.431
21,GCGAGAGC,-0.213
22,AGACAATA,0.223
23,CATTATCA,0.169
24,ACCGCTAA,0.0156
25,AGCGAAAG,-0.0475

row,Sequence,PBM 8-mer E-score
1,TAGTATGA,0.133
2,CGAAAGAG,-0.0656
3,GCAAATGA,0.138
4,AATTTGCT,0.174
5,CAAATGCA,0.131
6,TCAGGAAA,0.0241
7,ATATTGGA,0.265
8,AAGTGATC,-0.109
9,CTCGGTCA,-0.209
10,CCGAGCCA,-0.148
11,ACCCGGGG,-0.243
12,TAGTGGGA,0.118
13,GATTACGC,0.0125
14,ATCTTGTA,0.106
15,TACGGACA,-0.00539
16,AGAATGTC,-0.167
17,GACAGTGA,-0.0698
18,TACACGCA,0.119
19,TAAGCCAA,0.0873
20,ACACAATA,0.278
21,GAAAGCGA,0.0347
22,AACTGCTA,0.00726
23,CCCAAAGA,-0.107
24,CAGGTGTC,-0.277
25,AGCCTCTG,-0.314

row,Sequence,PBM 8-mer E-score
1,GATCTAGA,-0.000593
2,ACATCCAT,0.144
3,AACTAAGA,0.204
4,AGATTTCA,0.00665
5,TATTAAGA,0.366
6,GTATTTGA,0.319
7,ATCTATTC,0.12
8,GGAGCGAA,-0.245
9,ATGGCATC,-0.214
10,CGGTACGC,-0.229
11,GGGCAGTA,-0.171
12,GGGTCACA,-0.0551
13,CCTGTTCC,-0.192
14,CGTCGCAC,-0.232
15,ACGGGATG,-0.224
16,TCGAAGCA,-0.0397
17,CGCCATAA,0.111
18,GAGAACAC,0.0243
19,GAACCACA,-0.152
20,GACGTGAC,-0.112
21,CGGACGTC,-0.21
22,ACCCAGAT,-0.0429
23,ATAAGTCC,0.116
24,TAATGAGA,0.103
25,CCTGGTCC,-0.313

row,Sequence,PBM 8-mer E-score
1,CAAGTCTA,0.0298
2,TAGGGCGA,-0.0229
3,GGCTCTCA,-0.222
4,CATACTTA,0.314
5,AGTGATTA,0.258
6,AATCTGAC,-0.000891
7,CCCTCCGA,-0.213
8,CGACTATC,-0.0568
9,ATAGAAAT,0.16
10,ATCCCCAA,0.0566
11,AACACGCT,0.0229
12,AATCATAC,0.219
13,ACCGTCTA,-0.0941
14,GAGCACGC,-0.274
15,AAAGTCGA,0.0426
16,CTTTTCTC,-0.00236
17,ACTCTAGC,-0.214
18,CTGTGTCC,-0.11
19,TAGCCCTA,-0.21
20,ACTCGGTA,0.0381
21,AAGATCAG,0.181
22,CTCTGATA,0.0481
